Results are given in words; binding and its absence hold for the method and conditions named. For part of these data: In cells and extracts the contact can be indirect. Some results given as binding are weak or reduced against the parent protein; the word gives no strength. Sequences can lack the tags named with a protein. One block for each binder: values may come before it.
How the values were obtained:
[1] = molecular target: T1, Swi1 expressed as epitope-tagged protein in S. pombe cells (S. pombe) (UniProt Q9UUM2); test: co-IP; immunoprecipitation of Vid21 and Swi1 expressed as epitope-tagged proteins in S. pombe cells; no data shown
T1 sequence: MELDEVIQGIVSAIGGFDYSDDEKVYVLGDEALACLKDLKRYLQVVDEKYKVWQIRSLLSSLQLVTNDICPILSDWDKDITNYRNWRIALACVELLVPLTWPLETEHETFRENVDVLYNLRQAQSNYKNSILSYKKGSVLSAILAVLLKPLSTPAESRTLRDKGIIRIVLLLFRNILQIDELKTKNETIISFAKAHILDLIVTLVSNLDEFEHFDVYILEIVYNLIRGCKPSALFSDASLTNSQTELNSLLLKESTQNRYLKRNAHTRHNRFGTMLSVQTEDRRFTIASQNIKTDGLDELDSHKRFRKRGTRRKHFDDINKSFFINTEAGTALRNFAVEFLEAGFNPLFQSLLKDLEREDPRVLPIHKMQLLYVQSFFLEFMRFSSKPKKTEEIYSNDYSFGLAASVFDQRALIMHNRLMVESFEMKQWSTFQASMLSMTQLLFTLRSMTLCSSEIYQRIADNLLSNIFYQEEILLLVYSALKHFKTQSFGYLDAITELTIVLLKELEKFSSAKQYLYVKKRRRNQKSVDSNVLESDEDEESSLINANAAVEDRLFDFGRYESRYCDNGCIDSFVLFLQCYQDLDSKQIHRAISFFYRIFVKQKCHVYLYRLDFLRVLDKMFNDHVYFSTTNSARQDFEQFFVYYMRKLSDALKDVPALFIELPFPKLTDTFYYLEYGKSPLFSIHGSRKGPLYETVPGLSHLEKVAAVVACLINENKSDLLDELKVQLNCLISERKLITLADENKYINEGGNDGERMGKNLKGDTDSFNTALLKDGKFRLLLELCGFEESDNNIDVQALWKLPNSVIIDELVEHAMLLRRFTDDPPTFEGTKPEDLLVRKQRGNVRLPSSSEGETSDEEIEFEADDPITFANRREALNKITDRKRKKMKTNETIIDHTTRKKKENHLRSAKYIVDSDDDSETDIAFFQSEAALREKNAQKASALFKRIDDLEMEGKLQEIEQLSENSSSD

Vid21-13Myc (S. pombe) = molecular target: T2, Vid21-13Myc (S. pombe) (UniProt O59773); test: co-IP; S. pombe cell extracts; immunoprecipitation with anti-Myc 9E10 and protein G Sepharose; Western blot with anti-FLAG M2 and anti-Myc 9E10
T2 sequence: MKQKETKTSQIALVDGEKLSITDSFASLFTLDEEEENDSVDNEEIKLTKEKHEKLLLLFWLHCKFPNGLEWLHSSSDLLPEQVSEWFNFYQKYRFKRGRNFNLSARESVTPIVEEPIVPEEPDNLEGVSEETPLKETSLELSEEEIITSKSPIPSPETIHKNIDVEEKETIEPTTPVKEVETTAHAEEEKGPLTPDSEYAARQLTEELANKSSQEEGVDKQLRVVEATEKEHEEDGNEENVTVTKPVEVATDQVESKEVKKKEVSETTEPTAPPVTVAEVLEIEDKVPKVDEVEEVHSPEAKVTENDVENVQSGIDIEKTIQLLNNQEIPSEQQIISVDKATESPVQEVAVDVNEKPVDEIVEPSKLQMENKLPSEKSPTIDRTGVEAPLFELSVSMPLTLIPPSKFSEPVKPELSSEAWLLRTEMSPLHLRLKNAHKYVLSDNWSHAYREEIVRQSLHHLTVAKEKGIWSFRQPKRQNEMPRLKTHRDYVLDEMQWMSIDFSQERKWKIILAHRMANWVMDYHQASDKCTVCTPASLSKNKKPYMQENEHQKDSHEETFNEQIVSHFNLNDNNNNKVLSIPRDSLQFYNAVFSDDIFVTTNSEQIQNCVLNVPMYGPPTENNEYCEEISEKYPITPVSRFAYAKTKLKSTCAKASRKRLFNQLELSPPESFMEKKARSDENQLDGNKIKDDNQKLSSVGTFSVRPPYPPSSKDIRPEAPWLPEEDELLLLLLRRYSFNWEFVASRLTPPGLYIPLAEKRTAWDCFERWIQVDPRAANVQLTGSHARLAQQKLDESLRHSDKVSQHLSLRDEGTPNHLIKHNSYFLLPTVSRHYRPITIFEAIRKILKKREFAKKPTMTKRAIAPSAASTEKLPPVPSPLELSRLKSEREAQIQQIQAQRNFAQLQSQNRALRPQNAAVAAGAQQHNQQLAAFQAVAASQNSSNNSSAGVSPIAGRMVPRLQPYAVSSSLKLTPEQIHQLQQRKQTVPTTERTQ

[2] = molecular target: T3, Swi1 fused to Gal4 DNA-binding domain (S. pombe) (UniProt Q9UUM2); test: two-hybrid; S. cerevisiae Y190 reporter strain; Gal4-DBD (pAS404) and Gal4-AD (pGAD424) fusions; growth in the presence of 3-aminotriazole (25 mM in the screen)
T3 sequence: T1 sequence

GST-Swi3 (S. pombe) = molecular target: T4, GST-Swi3 (S. pombe) (UniProt O14350); test: pull-down; Glutathione Sepharose 4B beads bound to GST fusions mixed with His6-Vid21CT in buffer A (50 mM Tris-HCl pH 8.0, 150 mM NaCl, 0.1% NP-40, 10% glycerol, 5 mM EDTA), 1 h at 4 °C; washed three times with buffer A and once with 500 mM NaCl; Western blot with anti-GST and anti-hexahistidine; both …
T4 sequence: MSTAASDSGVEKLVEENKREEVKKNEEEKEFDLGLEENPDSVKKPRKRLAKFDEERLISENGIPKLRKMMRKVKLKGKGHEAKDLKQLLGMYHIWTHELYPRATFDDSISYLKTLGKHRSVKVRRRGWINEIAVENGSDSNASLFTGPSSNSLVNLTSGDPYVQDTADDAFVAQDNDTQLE

GST-Swi1 (S. pombe) = molecular target: T5, GST-Swi1 (S. pombe) (UniProt Q9UUM2); test: as above
T5 sequence: T1 sequence

B2: Mst1-5FLAG (protein, UniProt O94446 1-463)
chain: MSNDVDDESKIETKSYEAKDIVYKSKVFAFKDGEYRKAEILMIQKRTRGVVYYVHYNDYNKRLDEWITIDNIDLSKGIEYPPPEKPKKAHGKGKSSKRPKAVDRRRSITAPSKTEPSTPSTEKPEPSTPSGESDHGSNAGNESLPLLEEDHKPESLSKEQEVERLRFSGSMVQNPHEIARIRNINKICIGDHEIEPWYFSPYPKEFSEVDIVYICSFCFCYYGSERQFQRHREKCTLQHPPGNEIYRDDYISFFEIDGRKQRTWCRNICLLSKLFLDHKMLYYDVDPFLFYCMCRRDEYGCHLVGYFSKEKESSENYNLACILTLPQYQRHGYGKLLIQFSYELTKREHKHGSPEKPLSDLGLISYRAYWAEQIINLVLGMRTETTIDELANKTSMTTNDVLHTLQALNMLKYYKGQFIICISDGIEQQYERLKNKKRRRINGDLLADWQPPVFHPSQLRFGW
binding (Vid21-13Myc (S. pombe)): binds

B3: Swi3-AD (protein, UniProt O14350 1-181)
chain: T4 sequence
binding [2]: binds

B5: His6-Vid21_(593-985) (domain or fragment, UniProt O59773 593-985)
chain: FSDDIFVTTNSEQIQNCVLNVPMYGPPTENNEYCEEISEKYPITPVSRFAYAKTKLKSTCAKASRKRLFNQLELSPPESFMEKKARSDENQLDGNKIKDDNQKLSSVGTFSVRPPYPPSSKDIRPEAPWLPEEDELLLLLLRRYSFNWEFVASRLTPPGLYIPLAEKRTAWDCFERWIQVDPRAANVQLTGSHARLAQQKLDESLRHSDKVSQHLSLRDEGTPNHLIKHNSYFLLPTVSRHYRPITIFEAIRKILKKREFAKKPTMTKRAIAPSAASTEKLPPVPSPLELSRLKSEREAQIQQIQAQRNFAQLQSQNRALRPQNAAVAAGAQQHNQQLAAFQAVAASQNSSNNSSAGVSPIAGRMVPRLQPYAVSSSLKLTPEQIHQLQQRKQ
binding (GST-Swi3 (S. pombe)): binds
binding (GST-Swi1 (S. pombe)): binds

More lines, now with the values ahead:

binding [1]: no binding
B1: Vid21 expressed as epitope-tagged protein in S. pombe cells (protein, UniProt O59773 1-994)
chain: T2 sequence

binding [2]: binds
B4: Vid21_(593-985) fused to Gal4 activation domain (domain or fragment, UniProt O59773 593-985)
chain: B5 chain

Reference: paper PMC6466672
